From the supplement of paper PMC8728848
The other results are listed elsewhere or left out.

How the values were obtained:
Experiment in all cases: glycan array binding signal (z-score within array); higher = stronger binding
Settings in all cases: glycan notation: IUPAC condensed, linker removed
Fuc(a1-2)Gal = target: Fuc(a1-2)Gal
Procedure, shortened: (§1)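 Glycan array data came from 3228 arrays in the Consortium for Functional Glycomics database, and only arrays with an available protein sequence were kept. Glycan names were put into IUPAC-condensed notation, and columns mapping to the same glycan were averaged. The binding signal is a within-array Z-score, averaged across arrays of one protein sequence run at different concentrations or buffers and across linkers. A negative Z-score can be read as non-binding.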

Fuc(a1-2)Gal(b1-3)GalNAc = target: Fuc(a1-2)Gal(b1-3)GalNAc
Procedure, shortened: as §1

[1] = target: Fuc(a1-2)Gal(b1-3)GalNAc(b1-3)Gal
Procedure, shortened: as §1

[2] = target: Fuc(a1-2)Gal(b1-3)GalNAc(b1-3)Gal(a1-4)Gal(b1-4)Glc
Procedure, shortened: as §1

[3] = target: Fuc(a1-2)Gal(b1-3)GalNAc(b1-4)[Neu5Ac(a2-3)]Gal(b1-4)Glc
Procedure, shortened: as §1

Fuc(a1-2)Gal(b1-3)GlcNAc = target: Fuc(a1-2)Gal(b1-3)GlcNAc
Procedure, shortened: as §1

[4] = target: Fuc(a1-2)Gal(b1-3)GlcNAc(b1-3)Gal(b1-4)Glc
Procedure, shortened: as §1

[5] = target: Fuc(a1-2)Gal(b1-3)[Fuc(a1-4)]GlcNAc
Procedure, shortened: as §1

Fuc(a1-2)Gal(b1-4)Glc = target: Fuc(a1-2)Gal(b1-4)Glc
Procedure, shortened: as §1

Fuc(a1-2)Gal(b1-4)GlcNAc = target: Fuc(a1-2)Gal(b1-4)GlcNAc
Procedure, shortened: as §1

[6] = target: Fuc(a1-2)Gal(b1-4)GlcNAc(b1-3)Gal(b1-4)GlcNAc
Procedure, shortened: as §1

[7] = target: Fuc(a1-2)Gal(b1-4)GlcNAc(b1-3)Gal(b1-4)GlcNAc(b1-3)Gal(b1-4)GlcNAc
Procedure, shortened: as §1

[8] = target: Fuc(a1-2)Gal(b1-4)[Fuc(a1-3)]GlcNAc
Procedure, shortened: as §1

[9] = target: Fuc(a1-2)Gal(b1-4)[Fuc(a1-3)]GlcNAc(b1-3)Gal(b1-4)[Fuc(a1-3)]GlcNAc
Procedure, shortened: as §1

[10] = target: Fuc(a1-2)Gal(b1-4)[Fuc(a1-3)]GlcNAc(b1-3)Gal(b1-4)[Fuc(a1-3)]GlcNAc(b1-3)Gal(b1-4)[Fuc(a1-3)]GlcNAc
Procedure, shortened: as §1

Fuc(a1-2)GlcNAc = target: Fuc(a1-2)GlcNAc
Procedure, shortened: as §1

Fuc(a1-2)[Gal(a1-3)]Gal = target: Fuc(a1-2)[Gal(a1-3)]Gal
Procedure, shortened: as §1

[11] = target: Fuc(a1-2)[Gal(a1-3)]Gal(b1-3)GlcNAc
Procedure, shortened: as §1

[12] = target: Fuc(a1-2)[Gal(a1-3)]Gal(b1-4)Glc
Procedure, shortened: as §1

[13] = target: Fuc(a1-2)[Gal(a1-3)]Gal(b1-4)GlcNAc
Procedure, shortened: as §1

[14] = target: Fuc(a1-2)[Gal(a1-3)]Gal(b1-4)[Fuc(a1-3)]GlcNAc
Procedure, shortened: as §1

[15] = target: Fuc(a1-2)[Gal(a1-4)]Gal(b1-4)GlcNAc
Procedure, shortened: as §1

[16] = target: Fuc(a1-2)[GalNAc(a1-3)]Gal
Procedure, shortened: as §1

[17] = target: Fuc(a1-2)[GalNAc(a1-3)]Gal(b1-3)GlcNAc
Procedure, shortened: as §1

[18] = target: Fuc(a1-2)[GalNAc(a1-3)]Gal(b1-4)Glc
Procedure, shortened: as §1

[19] = target: Fuc(a1-2)[GalNAc(a1-3)]Gal(b1-4)GlcNAc
Procedure, shortened: as §1

[20] = target: Fuc(a1-2)[GalNAc(a1-3)]Gal(b1-4)[Fuc(a1-3)]GlcNAc
Procedure, shortened: as §1

[21] = target: Fuc(a1-2)[GalNAc(a1-4)]Gal(b1-4)GlcNAc
Procedure, shortened: as §1

[22] = target: Fuc(a1-2)[GalNAc(b1-3)]Gal
Procedure, shortened: as §1

Fuc(a1-3)GlcNAc = target: Fuc(a1-3)GlcNAc
Procedure, shortened: as §1

[23] = target: Fuc(a1-3)[Gal(b1-4)]GlcNAc
Procedure, shortened: as §1

[24] = target: Fuc(a1-3)[Gal(b1-4)]GlcNAc(b1-4)Gal(b1-4)[Fuc(a1-3)]GlcNAc
Procedure, shortened: as §1

[25] = target: Fuc(a1-3)[Gal(b1-4)]GlcNAc(b1-4)Gal(b1-4)[Fuc(a1-3)]GlcNAc(b1-4)Gal(b1-4)[Fuc(a1-3)]GlcNAc
Procedure, shortened: as §1

[26] = target: Fuc(a1-3)[Gal3S(b1-4)]GlcNAc
Procedure, shortened: as §1

[27] = target: Fuc(a1-3)[GalNAc(b1-4)]GlcNAc
Procedure, shortened: as §1

Fuc(a1-4)GlcNAc = target: Fuc(a1-4)GlcNAc
Procedure, shortened: as §1

Fuc(b1-3)GlcNAc = target: Fuc(b1-3)GlcNAc
Procedure, shortened: as §1

Gal(a1-2)Gal = target: Gal(a1-2)Gal
Procedure, shortened: as §1

Gal(a1-3)Gal = target: Gal(a1-3)Gal
Procedure, shortened: as §1

Gal(a1-3)Gal(b1-3)GlcNAc = target: Gal(a1-3)Gal(b1-3)GlcNAc
Procedure, shortened: as §1

Gal(a1-3)Gal(b1-4)Glc = target: Gal(a1-3)Gal(b1-4)Glc
Procedure, shortened: as §1

Gal(a1-3)Gal(b1-4)GlcNAc = target: Gal(a1-3)Gal(b1-4)GlcNAc
Procedure, shortened: as §1

[28] = target: Gal(a1-3)Gal(b1-4)[Fuc(a1-3)]GlcNAc
Procedure, shortened: as §1

Gal(a1-3)GalNAc = target: Gal(a1-3)GalNAc
Procedure, shortened: as §1

[29] = target: Gal(a1-3)[Gal(a1-4)]Gal(b1-4)GlcNAc
Procedure, shortened: as §1

B1: CLL-1 (Homo sapiens) (protein)
chain: MWIDFFTYSSMSEEVTYADLQFQNSSEMEKIPEIGKFGEKAPPAPSHVWRPAALFLTLLCLLLLIGLGVLASMFHVTLKIEMKKMNKLQNISEELQRNISLQLMSNMNISNKIRNLSTTLQTIATKLCRELYSKEQEHKCKPCPRRWIWHKDSCYFLSDDVQTWQESKMACAAQNASLLKINNKNALEFIKSQSRSYDYWLGLSPEEDSTRGMRVDNIINSSAWVIRNAPDLNNMYCGYINRLYVQYYHCTYKKRMICEKMANPVQLGSTYFREA
For B1, the “glycan array binding signal (z-score)” value (Fuc(a1-2)Gal) was -0.173, the “glycan array binding signal (z-score)” value (Fuc(a1-2)Gal(b1-3)GalNAc) was -0.191 and the “glycan array binding signal (z-score)” value [1] was 0.132. For the same binder, the “glycan array binding signal (z-score)” value [2] was -0.1, the “glycan array binding signal (z-score)” value [3] was -0.192 and the “glycan array binding signal (z-score)” value (Fuc(a1-2)Gal(b1-3)GlcNAc) was -0.112. For the same binder, the “glycan array binding signal (z-score)” value [4] was -0.19, the “glycan array binding signal (z-score)” value [5] was -0.204 and the “glycan array binding signal (z-score)” value (Fuc(a1-2)Gal(b1-4)Glc) was -0.193. For the same binder, the “glycan array binding signal (z-score)” value (Fuc(a1-2)Gal(b1-4)GlcNAc) was -0.23, the “glycan array binding signal (z-score)” value [6] was -0.121 and the “glycan array binding signal (z-score)” value [7] was -0.214. The “glycan array binding signal (z-score)” value [8] was -0.166, the “glycan array binding signal (z-score)” value [9] was -0.165 and the “glycan array binding signal (z-score)” value [10] was -0.07. For the same binder, the “glycan array binding signal (z-score)” value (Fuc(a1-2)GlcNAc) was -0.215, the “glycan array binding signal (z-score)” value (Fuc(a1-2)[Gal(a1-3)]Gal) was -0.225 and the “glycan array binding signal (z-score)” value [11] was -0.163. For the same binder, the “glycan array binding signal (z-score)” value [12] was -0.234, the “glycan array binding signal (z-score)” value [13] was -0.176 and the “glycan array binding signal (z-score)” value [14] was -0.12. For the same binder, the “glycan array binding signal (z-score)” value [15] was -0.135, the “glycan array binding signal (z-score)” value [16] was -0.099 and the “glycan array binding signal (z-score)” value [17] was -0.095. The “glycan array binding signal (z-score)” value [18] was -0.065, the “glycan array binding signal (z-score)” value [19] was -0.201 and the “glycan array binding signal (z-score)” value [20] was -0.164. For the same binder, the “glycan array binding signal (z-score)” value [21] was -0.194, the “glycan array binding signal (z-score)” value [22] was -0.222 and the “glycan array binding signal (z-score)” value (Fuc(a1-3)GlcNAc) was -0.245. For the same binder, the “glycan array binding signal (z-score)” value [23] was -0.14, the “glycan array binding signal (z-score)” value [24] was -0.182 and the “glycan array binding signal (z-score)” value [25] was -0.169. The “glycan array binding signal (z-score)” value [26] was -0.143, the “glycan array binding signal (z-score)” value [27] was -0.276 and the “glycan array binding signal (z-score)” value (Fuc(a1-4)GlcNAc) was -0.169. The “glycan array binding signal (z-score)” value (Fuc(b1-3)GlcNAc) was -0.181, the “glycan array binding signal (z-score)” value (Gal(a1-2)Gal) was -0.276 and the “glycan array binding signal (z-score)” value (Gal(a1-3)Gal) was -0.149. For the same binder, the “glycan array binding signal (z-score)” value (Gal(a1-3)Gal(b1-3)GlcNAc) was -0.136, the “glycan array binding signal (z-score)” value (Gal(a1-3)Gal(b1-4)Glc) was -0.278 and the “glycan array binding signal (z-score)” value (Gal(a1-3)Gal(b1-4)GlcNAc) was -0.149. The “glycan array binding signal (z-score)” value [28] was -0.193, the “glycan array binding signal (z-score)” value (Gal(a1-3)GalNAc) was -0.123 and the “glycan array binding signal (z-score)” value [29] was -0.247.
